Each molecule was assayed against Recombinant heterodimeric HCV NS3/NS4A protease (strain 1a) (Hepatitis C virus genotype 1a, UniProt P27958) (assay: Spectrophotometric assay for HCV protease inhibitory activity (chromogenic ester substrates)). Conditions: Table 1: Ketones; read-out: Ki* Range.
Assay type: biochemical
Work on `CC(C)(C)[C@H](NC(=O)NC1(C(=O)Cc2ccccc2)CCCCC1)C(=O)N1C[C@H]2[C@@H]([C@H]1C(=O)NC(CC1CC1)C(=O)C(N)=O)C2(C)C` (some centres unmarked) [compound 4178] yielded a Ki of 76 to 250 nM.
With `CC(C)C(=O)[C@@H](NC(=O)N[C@H](C(=O)N1C[C@H]2[C@@H]([C@H]1C(=O)NC(CC1CC1)C(=O)C(N)=O)C2(C)C)C(C)(C)C)C(C)(C)C` (some centres unmarked) [compound 4108] the Ki was less than 75 nM.
`CCCC(NC(=O)[C@@H]1[C@@H]2[C@H](CN1C(=O)[C@@H](NC(=O)N[C@H](C(=O)C1CC1)C1CCCCC1)C(C)(C)C)C2(C)C)C(=O)C(=O)NCC(F)(F)F` (some centres unmarked) [compound 4207] was tested, and the Ki was greater than 250 nM.
`CCCC(NC(=O)[C@@H]1[C@@H]2[C@H](CN1C(=O)[C@@H](NC(=O)N[C@H](C(=O)C1CC1)C(C)C)C(C)(C)C)C2(C)C)C(=O)C(=O)NCCOC` (some centres unmarked) [compound 4204] showed a Ki greater than 250 nM.
Work on `C=CCNC(=O)C(=O)C(CCC)NC(=O)[C@@H]1[C@@H]2[C@H](CN1C(=O)[C@@H](NC(=O)NC1(CC(=O)C(C)(C)C)CCCCC1)C(C)(C)C)C2(C)C` (some centres unmarked) [compound 4080] yielded a Ki of less than 75 nM.
Molecule `C=CCNC(=O)C(=O)C(CCC)NC(=O)[C@@H]1[C@@H]2[C@H](CN1C(=O)[C@@H](NC(=O)N[C@H](C(=O)C1CC1)C1CCCCC1)C1(C)CCCCC1)C2(C)C` (some centres unmarked) [compound 4169] has a Ki of less than 75 nM.
Work on `C=CCNC(=O)C(=O)C(CCC)NC(=O)[C@@H]1[C@H]2CC(C)(C)O[C@H]2CN1C(=O)[C@@H](NC(=O)N[C@H](C(=O)C1CC1)C(C)C)C1CCCCC1` (some centres unmarked) [compound 4197] yielded a Ki of 76 to 250 nM.
`CSc1ccc(C(=O)[C@@H](NC(=O)N[C@H](C(=O)N2C[C@H]3[C@@H]([C@H]2C(=O)NC(CC2CC2)C(=O)C(N)=O)C3(C)C)C(C)(C)C)C(C)C)cc1` (some centres unmarked) [compound 4071] gave a Ki of less than 75 nM.
Molecule `C=CCNC(=O)C(=O)C(CCC)NC(=O)[C@@H]1[C@@H]2[C@H](CN1C(=O)[C@@H](NC(=O)N[C@H](C(=O)c1ccc(N(C)C)cc1)C1CCCCC1)C(C)(C)C)C2(C)C` (some centres unmarked) [compound 4140] has a Ki of less than 75 nM.
`CCCC(NC(=O)[C@@H]1[C@@H]2[C@H](CN1C(=O)[C@@H](NC(=O)N[C@H](C(=O)C1CC1)C1CCCCC1)C(C)(C)C)C2(C)C)C(=O)C(=O)NCCC(F)(F)F` (some centres unmarked) [compound 4200] was tested, and the Ki was 76 to 250 nM.
Molecule `CC(C)[C@@H](CC(=O)c1ccccc1)NC(=O)N[C@H](C(=O)N1C[C@H]2[C@@H]([C@H]1C(=O)NC(CC1CC1)C(=O)C(N)=O)C2(C)C)C(C)(C)C` (some centres unmarked) [compound 4052] has a Ki of less than 75 nM.
`C=CCNC(=O)C(=O)C(CCC(F)(F)F)NC(=O)[C@@H]1[C@@H]2[C@H](CN1C(=O)[C@@H](NC(=O)N[C@H](C(=O)c1nccs1)C(C)C)C(C)(C)C)C2(C)C` (some centres unmarked) [compound 4171] showed a Ki of less than 75 nM.
`CNC(=O)C(=O)C(CC1CC1)NC(=O)[C@@H]1[C@@H]2[C@H](CN1C(=O)[C@@H](NC(=O)N[C@H](C(=O)C1CC1)C(C)C)C(C)(C)C)C2(C)C` (some centres unmarked) [compound 4156] showed a Ki of less than 75 nM.
With `CCCNC(=O)C(=O)C(CCC)NC(=O)[C@@H]1[C@@H]2[C@H](CN1C(=O)[C@@H](NC(=O)N[C@H](C(=O)C1CC1)C(C)C)C(C)(C)C)C2(C)C` (some centres unmarked) [compound 4186] the Ki was 76 to 250 nM.
Work on `COc1ccccc1C(=O)[C@@H](NC(=O)N[C@H](C(=O)N1C[C@H]2[C@@H]([C@H]1C(=O)NC(CC1CC1)C(=O)C(N)=O)C2(C)C)C(C)(C)C)C(C)C` (some centres unmarked) [compound 4045] yielded a Ki of less than 75 nM.
With `C#CCCC(NC(=O)[C@@H]1[C@@H]2[C@H](CN1C(=O)[C@@H](NC(=O)N[C@H](C(=O)c1ccccc1)C1CCCCC1)C(C)(C)C)C2(C)C)C(=O)C(=O)NCC=C` (some centres unmarked) [compound 4042] the Ki was less than 75 nM.
`CC(C)[C@@H](CC(=O)Cc1ccccc1)NC(=O)N[C@H](C(=O)N1C[C@H]2[C@@H]([C@H]1C(=O)NC(CC1CC1)C(=O)C(N)=O)C2(C)C)C(C)(C)C` (some centres unmarked) [compound 4079] was tested, and the Ki was less than 75 nM.
For `C=CCNC(=O)C(=O)C(CCC)NC(=O)[C@@H]1[C@@H]2[C@H](CN1C(=O)[C@@H](NC(=O)NC1(C(=O)c3ccccn3)CCCCC1)C(C)(C)C)C2(C)C` (some centres unmarked) [compound 4205], the Ki was greater than 250 nM.

Same assay, conditions: Table 3, Esters; read-out: Ki* Range
In the case of `CC(C)(C)[C@H](NC(=O)N[C@H](C(=O)N1C[C@H]2[C@@H]([C@H]1C(=O)NC(CC1CC1)C(=O)C(N)=O)C2(C)C)C(C)(C)C)C(=O)OCc1ccccc1` (some centres unmarked) [compound 4542], the Ki is reported as 76 to 250 nM.
`CC(C)(C)C[C@H](NC(=O)N[C@H](C(=O)N1C[C@H]2[C@@H]([C@H]1C(=O)NC(CC1CC1)C(=O)C(N)=O)C2(C)C)C(C)(C)C)C(=O)OCC1CC1` (some centres unmarked) [compound 4441] was tested, and the Ki was less than 75 nM.
Molecule `CC(OC(=O)[C@@H](NC(=O)N[C@H](C(=O)N1C[C@H]2[C@@H]([C@H]1C(=O)NC(CC1CC1)C(=O)C(N)=O)C2(C)C)C(C)(C)C)C(C)(C)C)C1CC1` (some centres unmarked) [compound 4359] has a Ki of less than 75 nM.
Work on `C=CCNC(=O)C(=O)C(CCC)NC(=O)[C@@H]1[C@@H]2[C@H](CN1C(=O)[C@@H](NC(=O)N[C@H](C(=O)OCc1ccccc1)C1(C(F)(F)F)CC1)C(C)(C)C)C2(C)C` (some centres unmarked) [compound 4487] yielded a Ki of less than 75 nM.
For `CC(OC(=O)[C@@H](NC(=O)N[C@H](C(=O)N1C[C@H]2[C@@H]([C@H]1C(=O)NC(CC1CC1)C(=O)C(N)=O)C2(C)C)C(C)(C)C)C(C)C)C1CC1` (some centres unmarked) [compound 4340], the Ki was less than 75 nM.
`COC(=O)C(C)(C)NC(=O)N[C@H](C(=O)N1C[C@H]2[C@@H]([C@H]1C(=O)NC(CC1CCC1)C(=O)C(N)=O)C2(Cl)Cl)C1CCCCC1` (some centres unmarked) [compound 4517] was tested, and the Ki was less than 75 nM.
With `C=CCNC(=O)C(=O)C(CCC)NC(=O)[C@@H]1CC2(CN1C(=O)[C@@H](NC(=O)N[C@H](C(=O)OC(C)(C)C)C(C)C)C1CCCCC1)SCCS2` (some centres unmarked) [compound 4597] the Ki was 76 to 250 nM.
Molecule `CC(C)[C@@H](NC(=O)N[C@H](C(=O)N1C[C@H]2[C@@H]([C@H]1C(=O)NC(CC1CCC1)C(=O)C(N)=O)C2(C)C)C(C)(C)C)C(=O)OCc1ccccc1` (some centres unmarked) [compound 4464] has a Ki of less than 75 nM.
`CC(C)(C)OC(=O)CCNC(=O)C(=O)C(CC1CC1)NC(=O)[C@@H]1[C@@H]2[C@H](CN1C(=O)[C@@H](NC(=O)N[C@H](C(=O)OCc1ccccc1)C1CC1)C(C)(C)C)C2(C)C` (some centres unmarked) [compound 4523] gave a Ki of less than 75 nM.
`CCC(C)[C@H](NC(=O)N[C@H](C(=O)N1C[C@@H]2OC(C)(C)C[C@@H]2[C@H]1C(=O)NC(CC1CC1)C(=O)C(N)=O)C1CCCCC1)C(=O)OCc1ccccc1` (some centres unmarked) [compound 4635] gave a Ki greater than 250 nM.
With `CC(C)(C)[C@H](NC(=O)NC1(C(=O)OCc2ccco2)CCCCC1)C(=O)N1C[C@H]2[C@@H]([C@H]1C(=O)NC(CC1CC1)C(=O)C(N)=O)C2(C)C` (some centres unmarked) [compound 4405] the Ki was less than 75 nM.
With `CC(C)[C@H](NC(=O)N[C@H](C(=O)N1C[C@H]2[C@@H]([C@H]1C(=O)NC(CC1CCC1)C(=O)C(N)=O)C2(C)C)C(C)(C)C)C(=O)OCc1ccco1` (some centres unmarked) [compound 4322] the Ki was less than 75 nM.
Work on `CC(C)(C)[C@H](NC(=O)NC1(C(=O)OCc2ccccc2)CCOCC1)C(=O)N1C[C@H]2[C@@H]([C@H]1C(=O)NC(CC1CC1)C(=O)C(N)=O)C2(C)C` (some centres unmarked) [compound 4642] yielded a Ki greater than 250 nM.
Work on `CC[C@H](C)[C@H](NC(=O)N[C@H](C(=O)N1C[C@H]2[C@@H]([C@H]1C(=O)NC(CC1CC1)C(=O)C(N)=O)C2(C)C)C(C)(C)C)C(=O)OCc1ccccc1` (some centres unmarked) [compound 4411] yielded a Ki of less than 75 nM.
`C=CCNC(=O)C(=O)C(CCC)NC(=O)[C@@H]1[C@@H]2[C@H](CN1C(=O)[C@@H](NC(=O)N[C@H](C(=O)OCc1ccco1)C(C)C)C(C)(C)C)C2(C)C` (some centres unmarked) [compound 4397] was tested, and the Ki was less than 75 nM.
`C=CCNC(=O)C(=O)C(CCC)NC(=O)[C@@H]1[C@@H]2[C@H](CN1C(=O)[C@@H](NC(=O)N[C@H](C(=O)OCc1ccccc1)C(C)C)C(C)(C)C)C2(C)C` (some centres unmarked) [compound 4454] gave a Ki of less than 75 nM.
With `CC(C)(C)OC(=O)C(CC(F)(F)F)NC(=O)N[C@H](C(=O)N1C[C@H]2[C@@H]([C@H]1C(=O)NC(CC1CC1)C(=O)C(N)=O)C2(C)C)C(C)(C)C` (some centres unmarked) [compound 4339] the Ki was less than 75 nM.
`CC(C)[C@H](NC(=O)N[C@H](C(=O)N1C[C@H]2[C@@H]([C@H]1C(=O)NC(CC1CC1)C(=O)C(N)=O)C2(Cl)Cl)C(C)(C)C)C(=O)OC1Cc2ccccc2C1` (some centres unmarked) [compound 4354] gave a Ki of less than 75 nM.
Work on `CC(C)OC(=O)[C@@H](NC(=O)N[C@H](C(=O)N1C[C@H]2[C@@H]([C@H]1C(=O)NC(CC1CCC1)C(=O)C(N)=O)C2(C)C)C(C)(C)C)C1CCC1` (some centres unmarked) [compound 4308] yielded a Ki of less than 75 nM.
Molecule `CC(C)(C)[C@H](NC(=O)N[C@H](C(=O)N1C[C@H]2[C@@H]([C@H]1C(=O)NC(CC1CCC1)C(=O)C(N)=O)C2(Cl)Cl)C(C)(C)C)C(=O)OCc1ccccc1` (some centres unmarked) [compound 4390] has a Ki of less than 75 nM.
For `CC(C)(C)OC(=O)[C@H](NC(=O)N[C@H](C(=O)N1C[C@H](Cl)C[C@H]1C(=O)NC(CC1CC1)C(=O)C(N)=O)C1CCCCC1)C(C)(C)C` (some centres unmarked) [compound 4588], the Ki was 76 to 250 nM.
Work on `CC(C)[C@H](NC(=O)N[C@H](C(=O)N1C[C@H]2[C@@H]([C@H]1C(=O)NC(CCC(F)(F)F)C(=O)C(N)=O)C2(C)C)C(C)(C)C)C(=O)OCc1ccco1` (some centres unmarked) [compound 4403] yielded a Ki of less than 75 nM.
Work on `C=CCNC(=O)C(=O)C(CCCC)NC(=O)[C@@H]1[C@@H]2[C@H](CN1C(=O)[C@@H](NC(=O)N[C@H](C(=O)OC(C)(C)C)C(C)(C)C)C1CCCCC1)C2(C)C` (some centres unmarked) [compound 4456] yielded a Ki of less than 75 nM.
Work on `CC(C)(C)[C@H](NC(=O)N[C@H](C(=O)N1C[C@H]2[C@@H]([C@H]1C(=O)NC(CC1CC1)C(=O)C(N)=O)C2(C)C)C(C)(C)C)C(=O)OCC1CC1` (some centres unmarked) [compound 4306] yielded a Ki of less than 75 nM.

Same assay, conditions: Table 6; read-out: Ki* range
Molecule `COC1CCC(Cc2ccccc2)(NC(=O)N[C@H](C(=O)N2C[C@H]3[C@@H]([C@H]2C(=O)NC(CC2CC2)C(=O)C(N)=O)C3(C)C)C(C)(C)C)CC1` (some centres unmarked) [compound 4981] has a Ki of 76 to 250 nM.
With `CC(C)(C)[C@H](NC(=O)NC1(Cc2cccc(O)c2)CCCCC1)C(=O)N1C[C@H]2[C@@H]([C@H]1C(=O)NC(CC1CCC1)C(=O)C(N)=O)C2(C)C` (some centres unmarked) [compound 4943] the Ki was less than 75 nM.
Work on `C=CCNC(=O)C(=O)C(CCC)NC(=O)[C@@H]1[C@@H]2[C@H](CN1C(=O)[C@@H](NC(=O)N[C@H](Cc1ccccc1)C(C)(C)C)C(C)(C)C)C2(C)C` (some centres unmarked) [compound 4969] yielded a Ki of 76 to 250 nM.
Work on `CC(C)(C)[C@H](NC(=O)NC1(Cc2ccccc2)CC2CCC1CC2)C(=O)N1C[C@H]2[C@@H]([C@H]1C(=O)NC(CC1CC1)C(=O)C(N)=O)C2(C)C` (some centres unmarked) [compound 4957] yielded a Ki of less than 75 nM.

Same assay, conditions: Table 8; read-out: Ki*
`CC(C)(C)[C@H](NC(=O)NC1(Cc2ccoc2)CCCCC1)C(=O)N1C[C@H]2[C@@H]([C@H]1C(=O)NC(CC1CC1)C(=O)C(N)=O)C2(C)C` (some centres unmarked) was tested, and the Ki was 4.3 nM.

From patent US7423058B2, “Inhibitors of hepatitis C virus NS3 protease” (Schering Corporation, priority 2004, dated 2008)
